According to PubChem BioAssay AID588591 (National Center for Advancing Translational Sciences (NCATS), 2011):
In all, about 390,000 compounds went through this assay and about 4,700 (1.2%) were called active. The shares of active, inactive and inconclusive entries below differ from those in the screen. Calls come from the whole dose curve; as a rule, active = well fitted inhibition curve with a large enough effect; inconclusive = small, poorly fitted or top-dose-only effect, or another doubt; inactive = no such curve, though single readings can be large or run the other way. Where the call is inconclusive, the potency comes from a doubtful curve fit.

What follows are compounds tested against DNA polymerase eta (Homo sapiens) (UniProt Q9Y253) (assay: qHTS for Inhibitors of Polymerase Eta). Conditions: recombinant Pol eta, fluorescent DNA replication assay; series mostly up to 114 µM; activity change, negative = inhibition: at the top concentration.
Chain of UniProt Q9Y253 (Q9Y253 whole entry, looked up): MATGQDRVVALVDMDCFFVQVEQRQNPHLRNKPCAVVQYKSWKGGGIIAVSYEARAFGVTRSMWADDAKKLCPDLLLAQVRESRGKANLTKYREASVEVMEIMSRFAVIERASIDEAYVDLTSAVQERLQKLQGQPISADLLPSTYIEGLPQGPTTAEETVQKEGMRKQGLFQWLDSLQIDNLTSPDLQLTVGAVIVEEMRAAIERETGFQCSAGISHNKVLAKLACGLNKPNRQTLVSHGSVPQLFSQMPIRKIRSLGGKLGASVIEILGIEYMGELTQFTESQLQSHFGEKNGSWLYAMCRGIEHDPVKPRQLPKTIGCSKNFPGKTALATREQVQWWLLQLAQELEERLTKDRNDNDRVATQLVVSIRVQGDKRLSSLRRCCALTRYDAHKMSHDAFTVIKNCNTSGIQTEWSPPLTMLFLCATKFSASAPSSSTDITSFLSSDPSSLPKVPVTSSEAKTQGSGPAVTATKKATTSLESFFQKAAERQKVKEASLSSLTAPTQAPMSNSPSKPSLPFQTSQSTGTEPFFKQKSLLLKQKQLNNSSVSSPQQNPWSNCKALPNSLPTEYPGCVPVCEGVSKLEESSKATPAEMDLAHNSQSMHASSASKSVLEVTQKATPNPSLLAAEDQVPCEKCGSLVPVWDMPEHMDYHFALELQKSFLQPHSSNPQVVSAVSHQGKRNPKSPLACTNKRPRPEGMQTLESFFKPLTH
Method in brief: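 Pol eta at 10 nM preincubated with compounds 15 min at room temperature; reaction started with fluorescent substrate (50 nM final) and read kinetically at 0 and 10 min.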
% is set by controls: 0 for no effect and ±100 for the full control effect; potency is the fitted concentration of half-maximal effect; tags give direction and shape of the fitted curve.

| SMILES | Potency | activity change, negative = inhibition |
| --- | --- | --- |
| COc1cc(/C=N/NC(=O)c2ccc(Cl)c(S(N)(=O)=O)c2)ccc1OCC(N)=O | inconclusive: 15.8 µM [inhibitor, full curve, poor fit] | – |
| CCOC(=O)c1cnc(-n2[nH]c(C)cc2=O)[nH]c1=O | inconclusive: 63.1 µM [inhibitor, partial curve, poor fit] | – |
| CCOc1ccc(NC(=O)CN2C(C(=O)OC)=C(c3ccccc3)c3cc(Cl)ccc3S2(=O)=O)cc1 | – | inactive: -19.1% |
| CCn1c(CC(=O)Nc2ccc(C)cc2)nnc1SCC(=O)N1CCN(c2ccccc2)CC1 | – | inactive: -3.83% |
| c1cc(SSc2ccncc2)ccn1 | – | inactive: -3.39% |
| Cc1[nH]n(-c2ccccc2)c(=O)c1C(C[N+](=O)[O-])c1ccccc1Cl (stereo not drawn) | – | inactive: -9.86% |
| COc1ccc(-c2cc(C(F)(F)F)nc(SCC(=O)NCc3ccc(Cl)cc3)n2)cc1 | – | inactive: -12.5% |
| Cc1ccc(-c2ccc(CCC(=O)O)n2CC(=O)O)cc1 | active: 25.1 µM | – |
| Nc1nc(NC(=O)/C=C\C(=O)O)nn1-c1ccccc1 | inconclusive: 15.8 µM [inhibitor, partial curve, poor fit] | – |
| CC1(C)CC(=O)c2cnc(NC(=O)CSc3nc4ccccc4o3)nc2C1 | inconclusive: 31.6 µM [inhibitor, partial curve, poor fit] | – |
| COC(=O)Cn1c(=NC(=O)c2sc3ccccc3c2Cl)sc2cc(S(N)(=O)=O)ccc21 | inconclusive: 8.91 µM [inhibitor, partial curve, poor fit] | – |
| CCOc1ccc(CCNC(=O)c2cnc3sc(N4CCCCCC4)nn3c2=O)cc1 | – | inactive: -11.8% |
| Cc1ccc2nc(/C(C#N)=C\c3ccc(Oc4ccc(C(F)(F)F)cc4[N+](=O)[O-])cc3)[nH]c2c1 | inconclusive: 2.82 µM [inhibitor, full curve, poor fit] | – |
| O=C(NCCC1=CCCCC1)c1ccc2c(c1)N(Cc1cccc(Cl)c1)C(=O)c1ccccc1S2(=O)=O | – | inactive: 0.0767% |
| COCCC(=O)N1CCc2c([nH]c3ccccc23)C1C(C)(C)C (stereo not drawn) | – | inactive: -4.9% |
| COC(=O)CNC(=O)C1Nc2ccccc2C2C=CCC12 (stereo not drawn) | inconclusive: 79.4 µM [inhibitor, partial curve] | – |
| COc1ccc(S(=O)(=O)N(CC(=O)Nc2cccc(C)c2)c2ccc(C)cc2)cc1OC | – | inactive: -20.6% |
| Cc1ccc(NC(=O)CSc2nc(NS(=O)(=O)c3ccccc3)cc(=O)[nH]2)cc1 | active: 22.4 µM | – |
| COc1ccc(S(=O)(=O)NC(C)C(=O)NCc2ccncc2)cc1C (stereo not drawn) | – | inactive: -13.5% |
| COC(=O)C1C2C=CC3(CN(c4cccc(C)c4)C(=O)C13)O2 (stereo not drawn) | active: 35.5 µM | – |
| COc1cccc(C2c3cc4c(cc3OC(N3CCCC3)C2C)OCO4)c1O (stereo not drawn) | inconclusive: 50.1 µM [inhibitor, partial curve, poor fit] | – |
| Cc1c(-c2ccc(Cl)cc2)oc(=O)c2c(N)n(-c3ccccc3)nc12 | inconclusive: 28.2 µM [inhibitor, partial curve] | – |
| O=C(CCn1nnc2ccccc21)Nc1nnc(COc2ccccc2F)s1 | – | inactive: -6.57% |

| SMILES | Potency | activity change, negative = inhibition |
| --- | --- | --- |
| Cc1nc(S/C(=C/c2ccc(-c3ccc(C(=O)O)cc3)o2)C(=O)O)n[nH]1 | active: 17.8 µM | – |
| CCc1nc2scc(-c3cccs3)c2c(=O)o1 | inconclusive: 17.8 µM [inhibitor, partial curve] | – |
| CCN(c1ccc(NC(=O)CN2C(=O)NC3(CCOc4ccccc43)C2=O)cc1)C(C)C (stereo not drawn) | inconclusive: 89.1 µM [inhibitor, partial curve, poor fit] | – |
| Cc1ccc(CNC(=O)Cn2cc3c(n2)-c2c(oc(C(=O)N4CCOCC4)c2C)CC3)cc1 | – | inactive: -4.29% |
| O=c1c2c(-c3ccco3)csc2nc(SCc2cn3cccnc3n2)n1-c1ccccc1 | active: 11.2 µM | – |
| O=c1c([N+](=O)[O-])c[nH]c2ccccc12 | inconclusive: 50.1 µM [inhibitor, partial curve, poor fit] | – |
| COc1cc(NS(=O)(=O)c2ccc(N/C=C(\C#N)c3nc4cc(Cl)ccc4o3)cc2)nc(OC)n1 | active: 35.5 µM | – |
| Cc1ccccc1CNC(=O)C1CCCN(c2nnc(C)c3c(C)n(-c4ccccc4)nc23)C1 (stereo not drawn) | inconclusive: 31.6 µM [inhibitor, partial curve, poor fit] | – |
| CCN(CC)S(=O)(=O)c1ccc(Cl)c(C(=O)N2CCc3ccccc32)c1 | inconclusive: 89.1 µM [inhibitor, partial curve, poor fit] | – |
| Cc1cc(C)n2nc(-c3ccsc3-n3c(C)ccc3C)cc2n1 | inconclusive: 28.2 µM [inhibitor, partial curve, poor fit] | – |
| COc1cc2cc(Oc3ccc4ccc(=O)oc4c3)c(=O)oc2cc1O[C@@H]1O[C@H](CO)[C@@H](O)[C@H](O)[C@H]1O | active: 8.91 µM | – |
| COC1=C/C(=C/c2c(N)n3c(nc2=O)sc2cc(S(C)(=O)=O)ccc23)C=CC1=O | active: 28.2 µM | – |
| Brc1ccc(-c2cn3c(n2)SCC3)cc1 | – | inactive: 2.34% |
| CN(C(=O)COC(=O)c1ccccc1NCc1ccco1)c1c(N)n(Cc2ccccc2)c(=O)[nH]c1=O | inconclusive: 12.6 µM [inhibitor, partial curve, poor fit] | – |
| Cc1c(Cc2ccccc2)sc(/N=C/c2c(O)ccc3ccccc23)c1C(N)=O | inconclusive: 56.2 µM [inhibitor, partial curve, poor fit] | – |
| COc1ccc(NC(=O)/C(C#N)=C/c2ccc(-c3ccc(Cl)c(C(=O)O)c3)o2)cc1 | active: 22.4 µM | – |
| Cc1c(NC(=O)/C(=C/c2cccs2)c2cccs2)c(=O)n(-c2ccccc2)n1C | inconclusive: 14.1 µM [inhibitor, partial curve] | – |
| Cc1ccc(-c2n[nH]c3c2C(c2ccccc2Cl)N(c2ccc(C(=O)O)cc2)C3=O)cc1 (stereo not drawn) | inconclusive: 100 µM [inhibitor, partial curve, poor fit] | – |
| O=C(O)c1cc([N+](=O)[O-])ccc1-c1ccc([N+](=O)[O-])cc1C(=O)O | active: 20 µM | – |
| Cn1c(SCC(=O)NC2CCCCC2)nnc1-c1cc2cc(Cl)ccc2o1 | inconclusive: 22.4 µM [inhibitor, partial curve, poor fit] | – |
| CCCc1cc2c(=O)c(-c3cscn3)c(C(=O)OCC)oc2cc1O | inconclusive: 79.4 µM [inhibitor, partial curve, poor fit] | – |
| Cc1ccc(S(=O)(=O)NC(=O)COc2ccc([N+](=O)[O-])cc2)cc1 | – | inactive: -15.4% |
| O=C(NCCC1=CCCCC1)C1CCN(C(=O)N2CCOc3ccccc32)CC1 | – | inactive: -4.31% |

| SMILES | Potency | activity change, negative = inhibition |
| --- | --- | --- |
| O=C(CSc1nnc(-c2ccco2)n1Cc1ccccc1)c1ccccc1 | inconclusive: 31.6 µM [inhibitor, partial curve, poor fit] | – |
| N#C/C(=C\c1ccc(OCc2ccc(F)cc2)cc1)C(=O)Nc1cccc(C(=O)O)c1 | active: 39.8 µM | – |
| COc1ccc(/C=N/Nc2ncnc3c2[nH]c2ccccc23)c(OC)c1OC | inconclusive: 25.1 µM [inhibitor, partial curve, poor fit] | – |
| CC(C)c1ccc(CN(C(=O)/C=C/c2ccco2)C2CCS(=O)(=O)C2)cc1 (stereo not drawn) | inconclusive: 79.4 µM [inhibitor, partial curve] | – |
| O=C(Nc1ccccc1C(=O)N1CCCC1)c1cccc(S(=O)(=O)N2CCCCCC2)c1 | inconclusive: 79.4 µM [inhibitor, partial curve, poor fit] | – |
| COc1cc(C2Nc3cccc4cccc(c34)N2)ccc1O | inconclusive: 14.1 µM [inhibitor, full curve, poor fit] | – |
| COc1cc(/C=C2/SC(=O)N(Cc3ccccc3Cl)C2=O)ccc1OCc1ccncc1 | inconclusive: 6.31 µM [inhibitor, partial curve] | – |
| O=C(O)c1cc(N/N=C/c2ccc3c(c2)OCCO3)ccc1Cl | active: 25.1 µM | – |
| Cc1ccc(C2(SCC(N)C(=O)O)c3ccccc3-c3ccccc32)cc1 (stereo not drawn) | active: 22.4 µM | – |
| O=C(Oc1ccccc1Cl)c1ccc2c(=O)n3c(nc2c1)CCC3 | inconclusive: 25.1 µM [inhibitor, partial curve] | – |
| COc1cccc(-c2nn(C)c3sc(C(=O)NCc4ccc(C)o4)cc23)c1 | – | inactive: -11.3% |
| O=C(O)/C(=C\c1cccc(O)c1)c1ccc(S(=O)(=O)N2CCCC2)s1 | active: 35.5 µM | – |
| CC(C)c1ccc2c(c1)[C@H]1OCC[C@H]1[C@@H](c1cccs1)N2 | inconclusive: 100 µM [inhibitor, partial curve, poor fit] | – |
| O=C1Nc2ccccc2C1=O | – | inactive: 0.405% |
| COc1ccc(/C=C/c2cc(=O)c3cc(Cl)ccc3o2)cc1 | inconclusive: 31.6 µM [inhibitor, partial curve, poor fit] | – |
| CCc1sc(C(=O)NCCc2ccc(S(N)(=O)=O)cc2)cc1C | – | inactive: -7.2% |
| Nc1nnc(SCC(=O)Nc2nnc(-c3ccccc3)o2)s1 | inconclusive: 14.1 µM [inhibitor, partial curve] | – |
| Nc1c(/C=C2/C=CC(=O)C(O)=C2)c(=O)nc2sc(CC(=O)N3CCOCC3)nn12 | active: 3.55 µM | – |
| CCCCn1c(N)c(N(CC(C)C)C(=O)c2cc(-c3ccncc3)nc3ccccc23)c(=O)[nH]c1=O | inconclusive: 39.8 µM [inhibitor, partial curve, poor fit] | – |
| N#Cc1c(SCC(=O)Nc2nc3ccc(Br)cc3s2)sc2c(O)cc(=O)[nH]c12 | active: 11.2 µM | – |
| CCOc1ccc(-c2cn3c(n2)sc2cc(C(=O)N4CCCC(C)C4)ccc23)cc1 (stereo not drawn) | – | inactive: -18.7% |
| Cc1ccc(OCC(=O)Nc2ccc(-c3nnc(-c4ccco4)o3)cc2)cc1 | inconclusive: 14.1 µM [inhibitor, partial curve] | – |
